Each structure is given as a SMILES string. In all, about 310,000 compounds went through this assay and about 2,200 (0.71%) showed an effect of 50% or more. The effect is printed as a negative number. The list shows a part of the results.

In this assay the target is human ether-à-go-go-related gene (hERG) potassium channel (human, UniProt Q12809). Kind of assay: primary screen, population patch clamp on CHO cells stably expressing hERG.
Chain of human ether-à-go-go-related gene (hERG) potassium channel (Q12809 whole entry, looked up): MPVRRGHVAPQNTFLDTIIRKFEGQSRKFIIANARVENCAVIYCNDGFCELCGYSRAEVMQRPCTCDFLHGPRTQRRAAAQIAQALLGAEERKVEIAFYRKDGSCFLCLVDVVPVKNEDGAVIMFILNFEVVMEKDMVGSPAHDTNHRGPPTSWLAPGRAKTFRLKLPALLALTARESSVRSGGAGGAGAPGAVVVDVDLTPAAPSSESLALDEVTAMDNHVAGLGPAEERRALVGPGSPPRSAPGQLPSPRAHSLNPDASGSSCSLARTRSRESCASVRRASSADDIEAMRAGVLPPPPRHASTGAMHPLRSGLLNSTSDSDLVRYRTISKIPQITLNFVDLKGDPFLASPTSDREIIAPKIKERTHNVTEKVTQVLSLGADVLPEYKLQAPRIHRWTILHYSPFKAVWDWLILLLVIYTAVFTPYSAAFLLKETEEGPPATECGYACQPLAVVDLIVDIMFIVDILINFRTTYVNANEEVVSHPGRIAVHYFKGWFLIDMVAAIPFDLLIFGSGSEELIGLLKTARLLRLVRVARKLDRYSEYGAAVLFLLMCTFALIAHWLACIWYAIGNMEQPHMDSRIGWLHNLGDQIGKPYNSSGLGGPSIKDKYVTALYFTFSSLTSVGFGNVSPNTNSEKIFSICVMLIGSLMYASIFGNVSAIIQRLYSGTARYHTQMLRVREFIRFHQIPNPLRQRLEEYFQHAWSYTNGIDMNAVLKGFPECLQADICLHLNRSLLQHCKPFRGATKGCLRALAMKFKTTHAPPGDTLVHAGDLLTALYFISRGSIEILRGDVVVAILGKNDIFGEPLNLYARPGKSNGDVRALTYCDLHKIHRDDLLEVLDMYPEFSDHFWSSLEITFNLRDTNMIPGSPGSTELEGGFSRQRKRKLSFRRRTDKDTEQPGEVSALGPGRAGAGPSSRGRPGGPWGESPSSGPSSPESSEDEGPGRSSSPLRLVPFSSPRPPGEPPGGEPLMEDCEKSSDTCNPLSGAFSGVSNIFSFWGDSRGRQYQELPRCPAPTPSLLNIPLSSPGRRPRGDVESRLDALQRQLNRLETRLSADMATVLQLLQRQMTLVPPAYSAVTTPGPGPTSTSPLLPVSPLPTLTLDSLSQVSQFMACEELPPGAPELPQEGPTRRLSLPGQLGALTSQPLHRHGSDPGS
As for `COC(=O)CN(c1ccc2c(c1)OCO2)S(C)(=O)=O`, the “hERG current change (%, negative = inhibition) at 1uM” value worked out at 9.42%.
On to `OC(CCNCCc1c[nH]c2ccccc12)C(F)(F)F` (centres unmarked), for which the “hERG current change (%, negative = inhibition) at 1uM” value amounted to 7.35%.
The figure for `CC(C)C(NC(=O)c1ccc(C(C)(C)C)cc1)C(=O)N1CCCC1` (centres unmarked) is 3.99%; for `CC(C)c1nc(=S)n(-c2ccccc2)[nH]1` it is 14.2%; for `COC(=O)CSc1nnc(NC(=O)/C=C\c2ccc3c(c2)OCO3)s1` it is 19.5%.
The figure for `O=C(N/N=C/c1ccco1)c1ccn[nH]1` is 10.7%; for `CN(C)C(=O)c1ccc(NC(=O)COc2cccc(Oc3ccccc3)c2)cc1` it is -1.62%.
Regarding `O=c1[nH]nc(SCc2cc(Cl)ccc2Cl)c(=O)[nH]1`, the “hERG current change (%, negative = inhibition) at 1uM” value is given as 4.56%.
The figure for `O=C(COc1ccccc1[N+](=O)[O-])N(C1CCCCC1)C1CCS(=O)(=O)C1` (centres unmarked) is 17.9%.
For the compound `CCCCOc1ccc(C(=O)Nn2cnnc2)cc1`, the “hERG current change (%, negative = inhibition) at 1uM” value turned out to be 6.14%.
For `Cc1cc(N2CCN(C(=O)c3ccco3)CC2)n2nc(-c3cccc(F)c3)cc2n1`, the “hERG current change (%, negative = inhibition) at 1uM” value is -5.73%.
With `CCOc1ccc(-n2cc(-c3ccccc3)c3c(=O)[nH]cnc32)cc1`, the “hERG current change (%, negative = inhibition) at 1uM” value was determined as 10.7%.
The figure for `COc1ncnc(OC)c1S(=O)(=O)Nc1ccc(C(F)(F)F)cc1` is 6.07%.
For the compound `CCCCOc1ccc(C2CC(=O)NC2=O)cc1` (centres unmarked), the “hERG current change (%, negative = inhibition) at 1uM” value is recorded as 8.6%.
The figure for `Cc1ccc2cc(C3CC(c4ccco4)=NN3S(=O)(=O)c3ccccc3)c(Cl)nc2c1` (centres unmarked) is 5.49%; for `COc1ccc(CN2CCC(n3nccc3NC(=O)c3ccc4c(c3)OCO4)CC2)cc1C` it is 2.86%.
The result for `CN1OC(COC(=O)c2ccc(Cl)cc2)CC1c1ccccc1` (centres unmarked) reads 20.1%; that for `CN(C)c1nc2c(c(=O)n(C)c(=O)n2C)n1CC(=O)c1cccs1`, 3.11%; that for `COCCOC(=O)C1=C(C)OC(N)=C(C#N)C1c1ccco1` (centres unmarked), 19.5%.
The figure for `COC(=O)Nc1ccc(S(=O)(=O)NNC(=O)c2c(O)c3ccccc3[nH]c2=O)cc1` is 17.5%.
For `COc1ccc(C(=O)C2CCCN(S(=O)(=O)N(C)C)C2)c(C)c1` (centres unmarked), the “hERG current change (%, negative = inhibition) at 1uM” value stood at 9.99%.
The result for `CC(=O)c1ccc(C(=O)N2CCCC(C(=O)c3ccc(Cl)cc3)C2)s1` (centres unmarked) reads 7.04%; that for `C/C=C/C=C\C(=O)Nc1cccc(C2=NOC3(C2)C[C@H](C(N)=O)N(C(=O)/C=C/C)C3)c1` (some centres unmarked), 17.6%.
For the compound `Cn1c(=O)c2c(nc3n2CC(CO)O3)n(C)c1=O` (centres unmarked), the “hERG current change (%, negative = inhibition) at 1uM” value amounted to 9.66%.
The figure for `O=C(c1nc2nc(-c3ccccc3)cc(C(F)(F)F)n2n1)N1CCCCC1` is 7.8%; for `Cn1cccc1/C=N\NC(=O)c1cncc(Br)c1` it is 8.6%; for `O=C(O)C1CCCC2CN3CCc4c([nH]c5ccccc45)C3C(O)C21` (centres unmarked) it is 12.7%.
The figure for `CSCCC(NC(=O)c1ccccc1Cl)C(=O)N1CCN(C(C)=O)CC1` (centres unmarked) is 1.88%.
The result for `O=C(CN1C(=O)CCSc2ccc(S(=O)(=O)N3CCOCC3)cc21)Nc1ccccc1Cl` reads -0.348%.
In the case of `CCOC(=O)c1nn(-c2ccc(C)cc2)c(=O)cc1OCC(=O)Nc1cccc(OC)c1`, the “hERG current change (%, negative = inhibition) at 1uM” value was found to be 11.6%.
Consider `CS(=O)Cc1cc(Sc2ccccc2)nc(-c2ccncc2)n1` (centres unmarked), for which the “hERG current change (%, negative = inhibition) at 1uM” value was -1.81%.
In the case of `COc1cc(NC(=O)c2cc(CC(C)C)on2)c(OC)cc1Cl`, the “hERG current change (%, negative = inhibition) at 1uM” value was determined as 21.7%.
Turning to `O=C(CN1CCN(S(=O)(=O)c2ccc(Cl)cc2)CC1)Nc1ccc(F)cc1F`, the “hERG current change (%, negative = inhibition) at 1uM” value was -36.6%.
As to `Fc1ccccc1NC(=S)NCCc1ccccc1`, the “hERG current change (%, negative = inhibition) at 1uM” value was determined as 6.57%.
The figure for `COC(=O)CCC(=O)Nc1ccc(Br)cc1` is -6.17%; for `Cn1c(Cc2cccc3ccccc23)nnc1SCC(=O)N1CCN(c2ccccc2)CC1` it is 1.77%.
The result for `CCN(C(=O)c1cc2c(=O)[nH]c3ccc(C)cc3c2s1)c1ccc(OC)cc1` reads 9.9%; that for `CCCC(NC(=O)C(C)NC(=O)CO/N=C1\C=C2CCC3C4CCC(C(C)=O)[C@@]4(C)CCC3[C@@]2(C)CC1)C(=O)O` (some centres unmarked), 7.75%; that for `CO/C=C\C=C/c1nnn(-c2ccc(Cl)cc2)n1`, 6.88%.
As to `Cc1c(NC2(C#N)CCCC2)c(=O)n(-c2ccccc2)n1C`, the “hERG current change (%, negative = inhibition) at 1uM” value worked out at 7.81%.
The figure for `COC(=O)c1cc(S(=O)(=O)N2CCCCC2)ccc1N1CCOCC1` is -6.09%; for `COc1ccc(NC(=O)c2ncn[nH]2)cc1` it is 7.36%; for `CCc1cc([N+](=O)[O-])cc(CC)c1N` it is 6.42%.
The figure for `OCCOCCNc1ncnc2c1cnn2-c1ccc(Cl)cc1` is 14.4%; for `N#Cc1nc(COc2ccccc2F)oc1NCCCn1ccnc1` it is -11.8%; for `Cc1ccc(S(=O)(=O)N(Cc2cccc(C(F)(F)F)c2)C(=O)N2CCN(C)CC2)cc1` it is 12.6%.
The result for `COc1ccc(CCNC(=O)Cc2cccs2)cc1` reads 16.8%; that for `CC(Sc1ccc(Cl)cc1)C(=O)NNC(=O)c1ccncc1` (centres unmarked), 9.91%; that for `CCc1nnc(NC(=O)c2cc(S(=O)(=O)N3CCCCC3)ccc2N2CCOCC2)s1`, 10.4%.
On to `O=C(/C=C/c1ccccc1[N+](=O)[O-])Nc1ccc(S(=O)(=O)Nc2ncccn2)cc1`, for which the “hERG current change (%, negative = inhibition) at 1uM” value worked out at 2.04%.
Regarding `Cc1cccc(NC(=O)Nc2cccnc2)c1C`, the “hERG current change (%, negative = inhibition) at 1uM” value amounted to 10.1%.
Consider `N#Cc1ccccc1N/C=C/C(=O)c1ccc(Cl)cc1`, for which the “hERG current change (%, negative = inhibition) at 1uM” value was 8.52%.
Consider `COc1cccc(N(CC(=O)NCCSc2ccccc2)S(C)(=O)=O)c1`, for which the “hERG current change (%, negative = inhibition) at 1uM” value came to 1.21%.
With `Cc1cc(C(=O)CSc2cccc[n+]2[O-])c(C)n1-c1ccc(OC(F)F)cc1`, the “hERG current change (%, negative = inhibition) at 1uM” value is 5.13%.
The result for `COCc1cc(=O)n2c(-c3ccccc3OC)n[nH]c2n1` reads 4.92%; that for `CCOc1ccc(Cl)cc1CSc1n[nH]c(CC)n1`, 5.18%; that for `CC(CCc1ccccc1)NC(=O)C(=O)Nc1ccccc1` (centres unmarked), 7.05%.
As for `Cc1ccc(CNC(=O)C2CCC(=O)N(C3CC3)C2)cc1` (centres unmarked), the “hERG current change (%, negative = inhibition) at 1uM” value was 16.9%.
As for `CCN(c1ccccc1)c1cc(C)nc2ncnn12`, the “hERG current change (%, negative = inhibition) at 1uM” value turned out to be 4.67%.
Regarding `COc1cccc(CC(=O)N2CCN(S(=O)(=O)c3ccc(Br)cc3)CC2)c1`, the “hERG current change (%, negative = inhibition) at 1uM” value is reported as -2.01%.
The result for `Cc1cc(C)nc(NC(=NCCc2c[nH]c3ccccc23)NC(=O)Nc2ccc(Cl)c(Cl)c2)n1` reads -5.19%; that for `O=C(c1cccc2ccccc12)n1nnc2ccccc21`, 9.06%; that for `O=C(NC(C(=O)O)c1ccccc1)c1ccc(S(=O)(=O)N2CCOCC2)cc1` (centres unmarked), -0.891%.
The result for `Cc1cc(-c2ccccc2)nc(SC(C(=O)O)c2ccccc2)n1` (centres unmarked) reads 3.67%; that for `Cc1cc(-c2nnc(CCC(=O)NC(C)c3cccc4ccccc34)o2)no1` (centres unmarked), 7.45%.
The figure for `COc1ccc(-n2nnc3c(SCC(=O)OCc4ccccc4)ncnc32)cc1` is -5.61%; for `CC(C)[n+]1ccn(C2=C([O-])c3ccccc3C(=O)/C2=N\S(=O)(=O)c2ccccc2)c1` it is 9.02%.
As to `CC(=O)Nc1nc2ccc(C(=O)NC3CCCCC3)cc2s1`, the “hERG current change (%, negative = inhibition) at 1uM” value was determined as 6.1%.
The figure for `Cc1cc2nnc(SCc3ccccc3)n2c(N)n1` is -5.86%; for `COCCN(Cc1ccccc1)C(=O)c1cccc(S(=O)(=O)N(C)c2c(C)n(C)n(-c3ccccc3)c2=O)c1` it is 7.28%.
The figure for `Cc1cccc(NC2=NC3(CCCCC3)N=C(N)N2)c1` is 1.24%; for `C/C(=C1/SC(N2CCOCC2)=NC1=O)c1ccc(Br)cc1` it is 10.8%; for `COC(=O)CSc1nc2ccccc2o1` it is 9.42%.
The figure for `CCOC(=O)N1CCN(Cc2nc3cc(NC(=O)c4cccs4)ccc3n2CC)CC1` is -0.465%; for `CC1CCC(NC(=O)C2c3ccccc3C(=O)N2Cc2ccc3c(c2)OCO3)CC1` (centres unmarked) it is 7.44%; for `O=C(NCc1cccnc1)C1CCN(c2ccc(S(=O)(=O)N3CCOCC3)cc2Cl)CC1` it is 0.119%.
As to `CC(=O)Nc1cc(C(=O)N2CCc3ccccc3C2)ccc1Sc1ccc(C)cc1`, the “hERG current change (%, negative = inhibition) at 1uM” value is on record as 3.94%.
With `Cc1ccc(NC(=O)NC(=O)CN2CCCC2c2ccc3c(c2)OCCO3)cc1C` (centres unmarked), the “hERG current change (%, negative = inhibition) at 1uM” value is given as -3.68%.
As for `Cc1cc(C(=O)c2ccccc2)c(NC(=O)CN2CCOCC2)s1`, the “hERG current change (%, negative = inhibition) at 1uM” value came to 4.13%.
The figure for `Cc1ccccc1N1CCN(Cc2ccc3c(c2)OCO3)CC1` is 3.92%; for `CCN(CC)S(=O)(=O)c1ccc(-c2nnc(SCc3nnc(-c4ccc(C)cc4)o3)n2CC)cc1` it is -0.991%.
Consider `Cc1ccsc1C(=O)OCC(=O)NCCC1=CCCCC1`, for which the “hERG current change (%, negative = inhibition) at 1uM” value worked out at 17.8%.
As for `O=C(CSc1nnc2scc(-c3ccc(F)cc3)n12)NCc1ccco1`, the “hERG current change (%, negative = inhibition) at 1uM” value is given as 11.5%.
The figure for `CC(=O)Nc1ccc(NC(=O)COC(=O)c2ccccc2SCC(=O)N2CCCC2)cc1` is 17.8%; for `C/C(Cl)=C/Cn1c(SC(C)C)nc2c1c(=O)[nH]c(=O)n2C` it is 6.96%; for `Cc1cc(=O)[nH]c(CN2CCOCC2)n1` it is 12%.
The figure for `O=S(=O)(NC1CC1)c1ccc(S(=O)(=O)N(Cc2ccccn2)C2CCCC2)cc1` is 10.1%; for `O=C(/C=C/C=C/c1ccccc1)c1ccco1` it is 10%.
Regarding `CC1(C)O[C@@H]2[C@H](O1)[C@@H](COS(=O)(=O)[O-])O[C@H]2n1cnc2c(=O)[nH]cnc21.[K+]`, the “hERG current change (%, negative = inhibition) at 1uM” value is 13.7%.

The values above are taken from publication PMC4336329 (PLoS ONE, 2015).
